# Laboratory results published in PubChem BioAssay AID1030 (National Center for Advancing Translational Sciences (NCATS), 2008).
# In all, about 220,000 compounds went through this assay and about 16,000 (7.3%) were called active. Inconclusive results, whose numbers are uncertain, are shown with a selection of clear calls. Calls follow the shape of the dose curve; as a rule, active = well fitted inhibition curve with a large enough effect (not every such curve was filed as active); inconclusive = small, poorly fitted or top-dose-only effect, or another doubt; inactive = no such curve, though single readings can be large or run the other way. No potency is given beside an inconclusive call; the fits are too rough.
# Target: Aldehyde dehydrogenase 1A1 (Homo sapiens) (UniProt P00352)
# Chain of UniProt P00352 (P00352 whole entry, looked up): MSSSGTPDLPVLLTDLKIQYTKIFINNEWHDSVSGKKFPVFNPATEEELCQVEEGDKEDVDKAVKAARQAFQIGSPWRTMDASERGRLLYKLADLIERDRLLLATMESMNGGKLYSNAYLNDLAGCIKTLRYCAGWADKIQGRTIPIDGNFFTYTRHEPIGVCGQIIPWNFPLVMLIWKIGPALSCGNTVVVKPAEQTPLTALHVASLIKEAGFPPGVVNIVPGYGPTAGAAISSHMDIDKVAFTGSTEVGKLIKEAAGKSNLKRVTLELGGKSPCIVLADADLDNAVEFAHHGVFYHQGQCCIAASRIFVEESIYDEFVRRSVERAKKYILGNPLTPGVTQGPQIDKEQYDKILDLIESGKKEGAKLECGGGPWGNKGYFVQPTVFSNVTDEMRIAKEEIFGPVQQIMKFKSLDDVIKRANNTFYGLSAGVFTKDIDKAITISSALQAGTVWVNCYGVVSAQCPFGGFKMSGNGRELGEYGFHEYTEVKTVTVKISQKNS
# Assay: qHTS Assay for Inhibitors of Aldehyde Dehydrogenase 1 (ALDH1A1);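 as to activity, negative = inhibition: plate controls were no enzyme wells and a reference inhibitor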
# Settings: Purified ALDH1A1, NADH fluorescence, propionaldehyde substrate; series mostly up to 75.3 µM; activity, negative = inhibition: at the top concentration
# Potency is read from the fitted curve at half-maximal effect; tags tell the direction and shape of the fitted curve.
SMILES,Potency,"activity, negative = inhibition"
O=C(c1cccc(Cl)c1)N1CCN(C2CCCCCC2)CC1,"inconclusive [inhibitor, single point]",
Nc1nc(N)nc(-c2ccccc2)n1,,inactive: 4.15%
CCCc1nnc(NC(=O)Cn2c(=O)sc3ccccc32)s1,"inconclusive [inhibitor, single point]",
O=C(OCC(=O)N1CCN(C(=O)c2ccco2)CC1)c1cc(S(=O)(=O)Nc2ccc(Cl)cc2)ccc1O,active: 14.1 µM,
O=C(Nc1cccc(Cl)c1)c1ccc2c(=O)n3c(nc2c1)CCCCC3,"inconclusive [inhibitor, partial curve, poor fit]",
CCCCCC(=O)Nc1nc(C)c(-c2csc(Nc3cc(Cl)ccc3OC)n2)s1,"inconclusive [inhibitor, partial curve]",
CN(C)S(=O)(=O)c1ccc(S(=O)(=O)N(Cc2ccco2)Cc2ccccc2Cl)cc1,"inconclusive [inhibitor, partial curve]",
Cc1nnc(CN(C)Cc2cn[nH]c2-c2ccc(-c3ccccc3)cc2)o1,active: 12.6 µM,
Cc1cc(OCC(=O)Nc2ccc(CN3CCCCC3)cc2)ccc1Cl,,inactive: -1.19%
COc1ccc2cc(C(=O)Nc3ccc(O)cc3)sc(=O)c2c1OC,,inactive: -14.9%
COc1ccc(OC)c(S(=O)(=O)NCCC2=CCCCC2)c1,"inconclusive [inhibitor, partial curve]",
CCOc1ccc(/C=C/C2=CC(C)(C)NC(=S)N2)cc1,active: 12.6 µM,
CCOC(=O)CCn1nc(-c2ccc(C)cc2)c2ccccc2c1=O,"inconclusive [inhibitor, single point]",
CCc1c(C)c(C#N)c2nc3ccccc3n2c1NCc1ccccn1,"inconclusive [inhibitor, single point]",
O=C(CSc1nc2ccccc2s1)NC1CCCc2ccccc21 (configuration not stated),"inconclusive [inhibitor, single point]",
Clc1cccc(Cl)c1CSc1nnc(-c2ccncc2)s1,"inconclusive [inhibitor, partial curve]",
Cc1cc(C)c(C#N)c(SCc2nc3ccccc3c(=O)[nH]2)n1,"inconclusive [inhibitor, partial curve]",
CCOC(=O)C1CCN(c2c(C(=O)c3ccccc3)cnc3ccc(Cl)cc23)CC1,active: 4.47 µM,
COc1ccccc1-n1cnnc1SCC(=O)Nc1cc(C(C)(C)C)nn1-c1ccccc1,"inconclusive [inhibitor, single point]",
COC(=O)c1cn(NC(=O)c2cc(OC)cc(OC)c2)c(=O)c2ccccc12,,inactive: 9.19%
COc1ccc2c(C)cc(SCn3nnc4ccccc4c3=O)nc2c1,"inconclusive [inhibitor, partial curve]",
COc1cccc(C(=O)N2CCN(Cc3ccc4c(c3)OCO4)CC2)c1OC,"inconclusive [inhibitor, single point]",
Cc1ccc(NNC(=O)c2ccc(Cl)cc2)nn1,,inactive: -6.59%
COc1ccc(C2(O)CN(c3ccccc3)C3=[N+]2CCS3)cc1OC (configuration not stated),"inconclusive [inhibitor, single point]",

SMILES,Potency,"activity, negative = inhibition"
CCC(C)N(C(=O)COC(=O)/C=C/c1ccc(O)c(OC)c1)C1CCS(=O)(=O)C1 (configuration not stated),"inconclusive [inhibitor, single point]",
Cc1nonc1C(=O)N/N=C/c1cccc(O)c1,,inactive: 0.611%
O=C(NC1=NCCS1)c1ccc(-c2ccc(Cl)cc2)o1,"inconclusive [inhibitor, partial curve]",
Cc1nnc(SCCCN2C(=O)c3ccccc3C2=O)o1,,inactive: -7.01%
COc1cc(C(=O)OCc2ccc(C)cc2)cc(NC(=O)c2cccs2)c1OC,"inconclusive [inhibitor, partial curve]",
COc1ccc(/C=C/C(=O)OCCC(C)C)cc1,,inactive: -5.24%
Cc1cccc2c1N(C)C(=O)C2=O,active: 1.78 µM,
COc1ccc(OC)c(N(CC(=O)NCc2cccnc2)S(C)(=O)=O)c1,"inconclusive [inhibitor, single point]",
CC1=C(C(=O)OCc2ccccc2)C(c2ccccn2)c2c(n(C)c(=O)n(C)c2=O)N1 (configuration not stated),"inconclusive [inhibitor, partial curve]",
CSc1ccc(S(=O)(=O)Nc2ccc(N3CCOCC3)c(Cl)c2)cc1,"inconclusive [inhibitor, single point]",
C=CS(=O)(=O)c1sc(Cl)c(N2CCOCC2)c1[N+](=O)[O-],active: 0.224 µM,
COc1cc(OC)cc(C(=O)NNC(=O)c2cc3c(s2)CCCC3)c1,,inactive: 2.78%
CC1CCN(c2nnc(N3CCC(C)CC3)c3ccccc23)CC1,,inactive: 10.7%
COc1ccccc1-c1cc(C(F)(F)F)nc(S(=O)(=O)CCCC(=O)N2CCCCC2C)n1 (configuration not stated),"inconclusive [inhibitor, single point]",
CSc1cccc(NC(=O)CSc2nc3ccccc3o2)c1,"inconclusive [inhibitor, single point]",
COc1ccc(CCNC(=O)Cn2c(=O)n(-c3ccc(F)cc3F)c(=O)c3sccc32)cc1OC,"inconclusive [inhibitor, partial curve]",
Cc1nn(Cc2cccc3ccccc23)c(C)c1NC(=O)c1cccnc1,"inconclusive [inhibitor, single point]",
CCN(CC)S(=O)(=O)c1ccc(Cl)c(NC(=O)COC(=O)c2ccc(O)cc2)c1,active: 15.8 µM,
O=[N+]([O-])c1ccc(Oc2cccc3cccnc23)c([N+](=O)[O-])c1,"inconclusive [inhibitor, single point]",
COC(=O)c1cc(-c2c(C)oc3cc(OC(C)C)ccc3c2=O)c(C)o1,"inconclusive [inhibitor, partial curve]",
O=C(CSc1nnc(Cc2ccccc2)n1-c1cccc(Cl)c1)N1CCOCC1,,inactive: 0.131%
O=c1n(-c2ccccc2)c(=O)n2n1CC(O)C2,,inactive: -3.48%
Cc1nc2ccccn2c1C(=O)c1ccccc1,,inactive: -0.656%
